The full ranking holds about 110,000 compounds; the median of “z-score” is about -0.1, and the highest 2% start at about 2. This is one part of the list.
Target: Metabotropic glutamate receptor 8 (Rattus norvegicus) (UniProt P70579)
Experiment: mGluR8 Gi/Go-coupled signaling modulation – cell-based, rat, thallium flux, HTS, primary screen (AID 488969)
Conditions: HEK293 rat mGluR8, GIRK (G protein-gated inwardly rectifying potassium channel) thallium flux, FluoZin2; at 10 µM; stronger effect = higher value; submaximal glutamate (EC20) added with thallium

Sequence of UniProt P70579 (P70579 whole entry, looked up): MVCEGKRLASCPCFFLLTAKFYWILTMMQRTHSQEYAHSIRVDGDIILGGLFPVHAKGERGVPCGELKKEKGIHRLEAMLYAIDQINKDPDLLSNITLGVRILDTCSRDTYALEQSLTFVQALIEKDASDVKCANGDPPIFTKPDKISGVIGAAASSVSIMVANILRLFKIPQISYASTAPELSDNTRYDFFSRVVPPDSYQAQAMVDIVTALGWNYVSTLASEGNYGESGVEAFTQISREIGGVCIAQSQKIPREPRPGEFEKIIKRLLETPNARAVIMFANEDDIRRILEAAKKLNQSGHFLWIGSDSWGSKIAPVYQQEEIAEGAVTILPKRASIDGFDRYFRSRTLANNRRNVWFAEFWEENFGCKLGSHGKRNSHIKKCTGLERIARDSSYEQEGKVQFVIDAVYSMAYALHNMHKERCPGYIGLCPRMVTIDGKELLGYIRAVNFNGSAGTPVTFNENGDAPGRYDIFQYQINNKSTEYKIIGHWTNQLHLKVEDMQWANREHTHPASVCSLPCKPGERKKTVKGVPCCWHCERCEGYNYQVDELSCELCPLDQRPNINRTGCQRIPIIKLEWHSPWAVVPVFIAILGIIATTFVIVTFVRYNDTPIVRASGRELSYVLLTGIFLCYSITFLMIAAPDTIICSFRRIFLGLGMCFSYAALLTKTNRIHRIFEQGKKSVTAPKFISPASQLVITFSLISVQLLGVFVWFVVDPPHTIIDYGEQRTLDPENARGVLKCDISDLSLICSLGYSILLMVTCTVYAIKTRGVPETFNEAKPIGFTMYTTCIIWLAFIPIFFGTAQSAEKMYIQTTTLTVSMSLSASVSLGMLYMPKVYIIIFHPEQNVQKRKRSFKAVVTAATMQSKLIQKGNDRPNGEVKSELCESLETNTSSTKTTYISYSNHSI

Compound	z-score
Cc1nnc(SCC(=O)Nc2nsc(-c3ccccc3)n2)s1	0.196
CCOc1cc(CNc2ccc3cn[nH]c3c2)ccc1OC	-0.245
Cc1cc(C(=O)N/N=C/c2ccc(Cl)c([N+](=O)[O-])c2)c(C)n1-c1ccc(F)cc1	-0.561
COc1ccc(-c2noc(-c3cc4ccccc4oc3=O)n2)cc1	0.464
c1ccc(CN=C2NN=C(c3cc4ccccc4o3)CS2)cc1	0.253
O=C(Nc1ccccc1)N1CCCCC1c1cccnc1 (centres undefined)	-0.291
N/C(=N\OC(=O)COc1ccccc1Cl)c1ccc(Cl)cc1	-0.273
COc1ccc(NC(=O)C(NS(=O)(=O)c2ccc3c(c2)CCCN3C(C)=O)C(C)C)c(OC)c1 (centres undefined)	-0.321
O=C1S/C(=C\C=C\c2ccco2)C(=O)N1c1ccccc1	-0.214
C/C(=N\NC(=O)c1nonc1N)c1cccs1	0.127
Cc1[nH]n(-c2cccc(Cl)c2)c(=O)c1-c1ccc(Cl)cc1	-0.719
CCN(CC(=O)NC1CCS(=O)(=O)C1)S(=O)(=O)c1ccc2ccccc2c1 (centres undefined)	-0.0621
O=C(Cc1ccc(Cl)cc1)NNc1c(F)c(F)cc(F)c1F	-0.451
COc1cccc(Nc2nnc(SCc3nc4ccccc4s3)s2)c1	0.163
O=C(COC(=O)/C=C/c1ccc(Cl)cc1)Nc1ccccc1-c1ccccc1	-0.364
O=C(/C=C/c1ccccc1)NNC(=O)C1CC1	0.633
CC(=O)Oc1ccc(C(=O)[C@H]2[C@H]3C(=O)N(c4ccc5ccccc5c4)C(=O)[C@H]3[C@@H]3C=CC=NN32)cc1	-0.0576
COc1ccc(C2C(C(C)=O)=C(O)C(=O)N2CCc2c[nH]c3ccccc23)cc1OC (centres undefined)	0.0523
CCC(=O)Nc1ccc(C(=O)N/N=C/c2ccc([N+](=O)[O-])cc2)cc1	-0.252
CC(C)(C)c1cc(N/C=C\c2nnnn2-c2ccc(Br)cc2)no1	0.0221
c1ccc(-c2cc(N3CCOCC3)nc3ccccc23)cc1	0.00698
Cc1cc(C)n(-c2cc(Oc3ccccc3)ncn2)n1	-0.437
CC(=O)Nc1ccc(NC(=O)c2ccccc2F)cc1	0.0771

Compound	z-score
Cc1ccc(C(C(=O)NC2CCCCC2)N(Cc2ccco2)C(=O)Cc2c[nH]c3ccccc23)o1 (centres undefined)	-0.9
COC(=O)Oc1ccc(/C=C/C(=O)OC(C)C)cc1OC(=O)OC	-0.306
Cc1cc(C)c(NC(=O)CSc2nnc(-c3ccco3)n2N)c(C)c1	0.105
CSC(=S)N(C)C1CCS(=O)(=O)C1 (centres undefined)	0.018
S=c1[nH]ncn1/N=C/c1ccccn1	-0.282
Cc1cccc(-c2nnc(SCc3ccc(C#N)cc3)n2Cc2ccco2)c1	-0.975
CN(C)C=Nc1nonc1-c1ncn[nH]1	0.1
O=C(CCN1C(=O)C2C3C=CC(C3)C2C1=O)NCC1CCCO1 (centres undefined)	0.128
COC(=O)c1ccc(NC(=O)CN(C2CCCCC2)S(C)(=O)=O)cc1	0.505
CCN(CC)c1ccc(/C=N/NC(=O)Cc2cccs2)cc1	0.753
O=C(CCCN1C(=O)/C(=C/c2ccccc2Cl)SC1=S)NNC(=O)c1ccccc1	-0.142
O=C(CSc1nc2c(c(=O)n1-c1ccc(Br)cc1)SCC2)Nc1nccs1	-0.478
Cc1ccc(O)c(C2=NCCNC(C(F)(F)F)=C2)c1	-0.194
Cc1c(NC(=O)c2ccc3c(c2)OCO3)c(=O)n(-c2ccccc2)n1C	-0.395
Clc1cc(Br)ccc1OCCN1CCOCC1	-0.189
C/C(=N\N=C(/N)SC1CC(=O)N(c2ccccc2)C1=O)c1cccs1 (centres undefined)	0.263
COc1cccc(/C=C/C(=O)c2ccc[nH]2)c1	-1.02
Cc1ccc(S(=O)(=O)N(Cc2ccc(Cl)cc2)c2ccccc2C(=O)NCc2ccco2)cc1	-0.281
COc1ccc(OC)c(N=c2oc3cc(O)ccc3cc2C(N)=O)c1	1.99
COc1ccccc1NCC(=O)N/N=C/C=C/c1ccccc1	0.166
Cc1[nH]nc2oc(=O)c(CCO)c(C)c12	-0.549
Cc1cccc(NC(=O)CN(C)S(=O)(=O)c2cccc3nsnc23)c1C	-0.0306
CCC(C)NC(=O)c1ccccc1NC(=O)COc1ccc(OC)cc1 (centres undefined)	1.54

Compound	z-score
CCCCNC(=O)/C=C1\Sc2ccccc2NC1=O	-0.0224
O=C(CSc1nc(O)cc(=O)n1-c1ccccc1)NC1CCCCC1	-0.229
Cc1no[n+]([O-])c1COc1ccc(/C=N/n2nnnc2N)cc1	-0.265
COc1ccc(C(=O)Sc2ccc(Cl)cc2)cc1OC	0.264
O=C(N/N=C/c1ccc(Br)cc1)c1ccccc1-n1cccc1	-0.629
Cc1c(C=O)c2ccccn2c1C(=O)c1ccccc1	-0.165
CCOC(=O)C1C(c2ccc(O)c(O)c2)NC(=S)NC1(O)C(F)(F)F (centres undefined)	-0.0911
C(=N\n1cnnc1)/c1cccs1	-0.0688
Cc1ccccc1OCCn1cc(/C(N)=N/O)c2ccccc21	0.429
CCOc1ccc(-c2n[nH]c(C)c2Oc2ccc(OC)cc2)c(O)c1	1.23
CCN(CC)CCNc1nc2ccccc2n1C	0.699
CCCCNC(=O)c1ccc2c(c1)N(CC)C(=O)CS2	0.279
CCOc1cc(CNn2nnnc2N)ccc1OCC(=O)NC(C)(C)C	0.0877
CC(Nc1ccccc1)c1cc(Cl)ccc1O (centres undefined)	-0.679
CCN(CC)S(=O)(=O)c1cc([N+](=O)[O-])ccc1N=Nc1c(O)n(C)c2ccccc12	-0.269
COc1cc(N=c2ssnc2Cl)cc(OC)c1	0.302
O=C(CNC(=O)c1ccco1)OCc1c(F)cccc1Cl	-0.0239
COc1cc(-c2nc3n(n2)C(c2cccc(OC)c2OC)C2=C(CCCC2=O)N3)cc(OC)c1OC (centres undefined)	-1.33
CC(=O)Nc1nc2ccccc2n1CCN(C)C	-0.911
COc1ccc(C(=O)CC(c2ccccc2)C2C(=O)CCCC2=O)cc1 (centres undefined)	1.12
CCC(c1nnc(SCC(=O)NCCc2ccc(Cl)cc2Cl)o1)N(C)C (centres undefined)	0.138
CCCCNC(=O)c1onc(CSc2ccc(OC)cc2)c1C(=O)O	-0.264
O=C(C1CCN(S(=O)(=O)c2cccc3cccnc23)CC1)N1CC=C(c2ccccc2)CC1	-2.19

Compound	z-score
Cc1ccc(NCCC(=O)c2ccc(Cl)cc2)cc1	-0.27
Cc1nn(CC(=O)NCc2ccccc2)c(=O)c2ccccc12	-0.576
O=C(c1ccco1)N1CCN=C1SCc1ccccc1F	-0.0242
Cc1ccc(C(=O)N2CCN(c3ccc(NC(=S)NC(=O)Cc4ccccc4)cc3)CC2)cc1	0.114
O=C(NC1CCCCC1)c1nc2c(nnn2Cc2ccccc2Cl)c(=O)[nH]1	-0.806
O=C(NCC1(c2ccccc2)CCCC1)C(=O)N1CCOCC1	-0.403
CC1CCN(c2nc3c(c(=O)[nH]c(=O)n3C)n2CCCc2ccccc2)CC1	-0.704
COc1cc(Cl)cc(NC(=O)CCN2CCN(C)CC2)c1	0.892
O=C(Cn1cnc2c(nnn2Cc2ccc(Cl)cc2)c1=O)NCC1CCCO1 (centres undefined)	-0.00714
O=C(Nc1ccccc1C(F)(F)F)c1cc(-c2cccc(O)c2)on1	0.524
c1ccc(NC(=NCc2ccco2)c2ccccc2)cc1	-0.548
CCCCOn1c(C)c(C(=O)OCC)c2c3nonc3ccc21	-0.842
O=C(CSc1ncn[nH]1)c1ccco1	0.0338
Nc1c(C(=O)C2CC2)sc2nc(-c3ccccc3)cc(C(F)(F)F)c12	-1.24
Cc1nc2nc(C)c(CCC(=O)N3CCc4ccccc43)c(C)n2n1	0.142
COc1cc2c(cc1NC(=O)C(C)OC(=O)C1CC(=O)N(Cc3ccco3)C1)oc1ccccc12 (centres undefined)	-0.283
O=C1N=C(N2CCOCC2)S/C1=C/c1ccc(-c2ccccc2Cl)o1	-0.08
Cc1ccc(C)c(NC(=O)c2nc(-c3ccccc3)n(-c3ccccc3)n2)c1	-0.0168
CN1CC(c2ccccn2)C2(SC(=S)N(Cc3ccccc3)C2=O)C12C(=O)Nc1ccccc12 (centres undefined)	-0.103
O=C(NCCO)c1ccc2[nH]c3ccccc3c2c1	-0.163
N#CC1=C(SCC(=O)NC2CCCCC2)NC(=O)CC1c1ccco1 (centres undefined)	-0.314
COc1ccccc1/C=C1\NC(=S)N(CC2CCCO2)C1=O (centres undefined)	0.246
O=[N+]([O-])c1ccc(O)c(/C=N\N=C2c3ccccc3-c3ccccc32)c1	-0.297

Compound	z-score
Cn1c2ccccc2c2cc(C(=O)N3CCOCC3)sc21	-0.0317
COc1ccc(-n2c(SCC(=O)Nc3ccccc3)nnc2-c2ccoc2C)cc1	-0.171
CCN1C(=Nc2ccc(Cl)cc2)SC/C1=C\C(=O)OC	-0.144
Cc1ccc(COc2ccsc2-c2n[nH]c(=S)n2C)cc1	0.986
Cc1ccc(-c2nnc(SCC#CCOC(=O)c3cccs3)o2)cc1	0.19
COC(=O)c1[nH]c2ccc(F)cc2c1NC(=O)C1=COCCO1	-0.198
O=C(OC1CCOC1=O)c1cc(-c2ccc(Cl)cc2)nc2ccccc12 (centres undefined)	0.4
COC(=O)CN1C2(C#N)CCCCC2CC2CCCCC21C#N (centres undefined)	0.16
COc1ccc(OC)c(Nc2nc(-c3sc(C)nc3C)cs2)c1	0.304
CC(C)CCNC(=O)CSc1nnc(-c2ccc(S(=O)(=O)N3CCCC3)cc2)n1C	-0.0644
Cc1ccc(-c2csc3ncnc(-n4nnc5ccccc54)c23)cc1	-0.239
Cc1c(Br)c([N+](=O)[O-])nn1CC(=O)Nc1c(C)n(C)n(-c2ccccc2)c1=O	0.124
CN(C(N)=S)c1ccccc1	-0.17
O=C(COC(=O)Cc1ccc(Cl)cc1)Nc1ccccc1-c1ccccc1	-0.515
CCc1c(C(=O)NCc2cnn(C)c2)csc1C	1.09
Cc1cccc(Nc2ccccc2C(=O)OCC(=O)NCc2ccco2)c1C	-0.14
Cc1cc(NC(=O)CSc2nc3ccccc3c(=O)n2C(C)c2ccccc2)no1 (centres undefined)	1.55
O=C(Cc1ccccc1)CC1(O)C(=O)Nc2ccccc21 (centres undefined)	0.114
CC(C)[C@H](NC(=O)c1ccccc1)C(=O)OCC(=O)N1CC2(C)CC1CC(C)(C)C2 (some centres undefined)	-0.43
Cc1cc(S(=O)(=O)NC2CCCCC2)c(C)s1	-0.609
Cc1cc(SCC(=O)c2cccs2)nc2c(C)cccc12	-0.163
CCOC(=O)c1ccc(-c2ccc(/C=N/NC(=O)CN(c3ccccc3Cl)S(C)(=O)=O)o2)cc1	0.0251

Source: PubChem BioAssay AID488969 (Vanderbilt High Throughput Screening Facility, 2010)
